Assay results taken from PubChem BioAssay AID1159614 (National Center for Advancing Translational Sciences (NCATS), 2016).
Screen size: about 45,000 compounds; about 65 (0.1%) were called active. Calls come from the whole dose curve; as a rule, active = well fitted activation curve with a large enough effect; inconclusive = small, poorly fitted or top-dose-only effect; inactive = no such curve, though single readings can be large or run the other way. The list shows a part of the results.

These molecules were tested against Galactocerebrosidase (Homo sapiens) (UniProt P54803) (assay: A Novel Cell-Based Assay to Identify Small Molecules for B -Galactocerebrosidase). Conditions: 145M-Twi-hGALC-G270D cells (Twitcher mouse brain line with human GALC G270D), HMU-beta-Gal fluorescence, 48 h; series mostly up to 57.5 µM; activation: at the top concentration.
Method in brief: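 Fluorescence readout: HMU-β-gal cleavage by mutant GALC (0.1 mM final, citrate/phosphate pH 5.2 with 1 mg/mL taurocholate), stopped with carbonate/bicarbonate plus Triton X-100. Cells: murine Twitcher 145M-Twi expressing human G270D GALC; qHTS for activators.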
Note: 0% is about no effect; nearly all actives have a fitted effect of over 65% in size.

Chain of UniProt P54803 (P54803 whole entry, looked up): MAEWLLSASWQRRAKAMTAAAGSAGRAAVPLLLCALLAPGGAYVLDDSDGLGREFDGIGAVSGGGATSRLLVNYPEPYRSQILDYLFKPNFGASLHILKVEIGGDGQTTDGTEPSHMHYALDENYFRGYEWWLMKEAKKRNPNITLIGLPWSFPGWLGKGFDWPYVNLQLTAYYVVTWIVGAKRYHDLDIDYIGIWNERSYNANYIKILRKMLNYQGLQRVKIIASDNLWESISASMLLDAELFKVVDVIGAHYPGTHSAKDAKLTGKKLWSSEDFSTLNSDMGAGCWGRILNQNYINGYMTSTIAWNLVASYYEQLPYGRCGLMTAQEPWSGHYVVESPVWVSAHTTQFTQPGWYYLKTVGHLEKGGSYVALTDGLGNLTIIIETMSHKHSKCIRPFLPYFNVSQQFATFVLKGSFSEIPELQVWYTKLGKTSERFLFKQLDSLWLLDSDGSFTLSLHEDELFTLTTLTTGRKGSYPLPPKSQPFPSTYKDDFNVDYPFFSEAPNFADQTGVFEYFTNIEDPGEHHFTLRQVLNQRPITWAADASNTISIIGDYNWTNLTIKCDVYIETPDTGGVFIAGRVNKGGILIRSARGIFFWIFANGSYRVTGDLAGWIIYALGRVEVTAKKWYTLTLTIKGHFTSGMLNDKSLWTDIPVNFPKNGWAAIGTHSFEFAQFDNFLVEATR

| Compound | activation |
| --- | --- |
| O=S1(=O)c2ccccc2N(Cc2ccccc2F)c2ccccc21 | inactive: -10.4% |
| CCCCN(C)C(=O)c1ccc2c(=O)n3nc(Nc4cc(C)ccc4C)sc3nc2c1 | inactive: -8.57% |
| O=C(CNC(=O)c1ccc(F)cc1)OCc1cc(=O)n2ccsc2n1 | inactive: -0.848% |
| CCN1CCc2c(sc(NC(=O)c3ccc(S(=O)(=O)N4CCCC(C)C4)cc3)c2C(=O)OC)C1 (stereo unspecified) | inactive: -24% |
| COc1ccc(C(=O)Nc2ccc3oc(-c4cccc5c(Br)cccc45)nc3c2)cc1 | inactive: -23.6% |
| CCOc1ccc(NS(=O)(=O)c2ccc3c(c2)NC(=O)CCS3)cc1 | inactive: -11.1% |
| COc1ccc(CCNC(=O)c2ccc(-n3c(C)cc4c3CCC(C)C4)cc2)cc1OC (stereo unspecified) | inactive: -11% |
| Cc1cc(C)cc(NC(=O)COc2cccc3c(=O)n(C)ccc23)c1 | inactive: -6.66% |
| O=C(NCc1ccc2c(c1)OCO2)c1ccc2c(c1)N(Cc1c(F)cccc1Cl)C(=O)c1ccccc1S2 | inactive: -19% |
| Cc1cc(C)c(OCC(=O)N(Cc2ccc(N(C)C)cc2)Cc2ccco2)c(C)c1 | inactive: -6.99% |
| CC1=C(C(=O)OC2CCCC2)C(c2c(F)cccc2Cl)CC(=O)N1 (stereo unspecified) | inactive: -7.32% |
| Cc1ccc(-c2cn3nc(N4CCCC(C(=O)NCc5ccccc5F)C4)sc3n2)cc1 (stereo unspecified) | inactive: -1.75% |
| COc1ccc(-n2c(-c3cccc(F)c3)nc3c(cnn3-c3ccc(C)cc3)c2=O)cc1 | inactive: -9.65% |
| Cc1ccc(-c2csc(-c3c(N)c(C(=O)c4ccc5c(c4)OCO5)n4ccccc34)n2)cc1 | inactive: -19.6% |
| Cc1ccc(Cn2nc3n(c2=O)-c2cc(Cl)ccc2OC3)cc1 | inactive: -9.65% |
| COC(=O)c1ccccc1NC(=O)Cn1c(=O)n(CCC(=O)NCc2ccc3c(c2)OCO3)c(=O)c2ccccc21 | inactive: -10.9% |
| COc1ccc(C(=O)c2cn(CC(=O)Nc3cc(OC)cc(OC)c3)c3ccc(OC)cc3c2=O)cc1 | inactive: -28.3% |
| COc1ccc(-c2nc3ccccc3o2)cc1NC(=O)Cc1ccc(Cl)cc1 | inactive: -28.2% |
| Cc1cccc(N(C)C(=O)Cn2c(=O)oc3cc(S(=O)(=O)N4CCCCC4)ccc32)c1 | inactive: -6.81% |
| Cn1ccnc1SCC(=O)Nc1cccc(Br)c1 | inactive: -21.3% |
| CCOC(=O)c1c(S(=O)(=O)N2CCC(C(=O)NCc3cccc(OC)c3)CC2)c(C)n(C)c1C | inactive: -16.5% |
| COc1ccc(N2CC(NC(=O)C3CCCCC3)CC2=O)cc1 (stereo unspecified) | inactive: -13% |
| Clc1ccc(C(Cn2ccnc2)OCc2c(Cl)cccc2Cl)c(Cl)c1 (stereo unspecified) | inactive: -8.23% |
| CCn1c(SCC(=O)Nc2cc(C)ccc2F)nnc1-c1ccccc1O | inactive: -11.5% |

| Compound | activation |
| --- | --- |
| CCN(c1ccc(OC)cc1)S(=O)(=O)c1ccc2[nH]c3c(c2c1)CCCCC3 | inactive: -30.2% |
| COC(=O)c1ccc(NC(=O)Cn2c(=O)oc3ccccc32)cc1 | inactive: -3.98% |
| NC(=O)c1cc(S(=O)(=O)NCc2cccc(Br)c2)cs1 | inactive: -0.0471% |
| COc1ccc(C2CC(=O)c3cc(-c4nc(-c5cccc([N+](=O)[O-])c5)cs4)c(=O)n(-c4ccccc4N)c3C2)cc1 (stereo unspecified) | inactive: -6.01% |
| Cc1ccc(CNC(=O)c2ccc3c(c2)CCN3S(=O)(=O)c2ccc(Br)cc2)cc1 | inactive: -8.17% |
| COc1ccccc1CNC(=O)c1ccc(N2CCCC2)c(NC(=O)NCc2ccc(C)cc2)c1 | inactive: -7.33% |
| Cc1ccccc1CNC(=O)Cn1c(=O)c2cccn2c2cccnc21 | inactive: -13.4% |
| CC(=O)c1ccc(NC(=O)C2CCN(S(=O)(=O)c3ccc4[nH]c5c(c4c3)CCCCC5)CC2)cc1 | inactive: -12% |
| CCCOc1ccc(C2c3c(oc4ccccc4c3=O)C(=O)N2c2nnc(C(C)C)s2)cc1 (stereo unspecified) | inactive: -3.92% |
| CCOC(=O)CNC(=O)N1CCN(S(=O)(=O)c2ccc3c(ccn3C)c2)CC1 | inactive: -2.84% |
| COc1ccc(CC(=O)N2CC(=O)Nc3ccc(F)cc3C2c2ccccc2)cc1 (stereo unspecified) | inactive: -24.9% |
| COC(=O)c1ccccc1NC(=O)c1ccc(CN2CC(=O)N3CCCCC3C2=O)cc1 (stereo unspecified) | inactive: -14.9% |
| COc1ccc(C2=NC(c3ccccc3)=Nc3ccc(C)cc3N2)cc1 | inactive: -30.5% |
| CCc1ccc(CNC(=O)C2CCN(c3nn4cc(-c5ccc(OC)cc5)nc4s3)CC2)cc1 | inactive: -10.8% |
| CCC(C)NC(=O)c1c2c(nc3ccccc13)C(=O)N(C1CCCCC1)C2 (stereo unspecified) | inactive: -0.311% |
| O=C(CSc1n[nH]c(-c2ccc(F)cc2)n1)N1CCN(c2ccc(F)cc2)CC1 | inactive: -13.5% |
| CCOC(=O)c1cc(S(=O)(=O)Nc2ccccc2)[nH]n1 | inactive: -16.2% |
| COc1ccccc1N1CCN(CC(O)COc2ccc(Cl)c(C)c2)CC1 (stereo unspecified) | inactive: -13.9% |
| COc1ccc(NC(=O)CSc2nnc(-c3ccncc3)n2-c2ccccc2)cc1 | inactive: -7.11% |
| CN1CCN(C(=O)c2ccc3c(c2)N(Cc2ccc(F)cc2)C(=O)c2ccccc2S3(=O)=O)CC1 | inactive: -9.41% |
| Cc1ccc(CNC(=O)C2CCN(S(=O)(=O)N3CCCCC3)CC2)cc1 | inactive: -0.907% |
| Cc1ccc(Cn2nnc3c(=O)[nH]c(C4CCN(C(=O)Cc5ccccc5F)CC4)nc32)cc1 | inactive: -8.61% |
| CC(=O)c1c(C)oc2ccc(N(C(=O)Oc3ccccc3)S(=O)(=O)c3ccc(Cl)cc3)cc12 | inactive: -17.9% |
| CCOc1ccc(CNC(=O)c2ccc3oc(=O)n(Cc4ccccc4)c3c2)cc1 | inactive: -5.21% |

| Compound | activation |
| --- | --- |
| COc1ccc(CCNC(=O)CCc2c(C)nc3c4c(C)cc(C)nc4nn3c2C)cc1OC | inactive: -12% |
| CCc1cccc(NS(=O)(=O)c2c(C)[nH]c(=O)[nH]c2=O)c1 | inactive: -8.91% |
| COc1cccc2c1cc1c(=O)n(CC(=O)N3CCN(c4cccc(C)c4C)CC3)nc(C)n12 | inactive: -14.5% |
| CCOc1ccccc1Nc1nc2ccccc2c2nncn12 | inactive: -9.26% |
| COc1ccc(OCC(=O)Nc2ccc(-c3nc4cc(C)cc(C)c4o3)cc2)cc1 | inactive: -32.7% |
| CC1CCN(S(=O)(=O)c2ccc3c(c2)CCN3C(=O)Nc2ccccc2Br)CC1 | inactive: 1.6% |
| Fc1ccc(N2CCN(c3nc4ccccc4c4nc(-c5ccccc5)nn34)CC2)cc1 | inactive: -8.8% |
| COc1ccc2c(c1)cc(CNc1ccc(OC)c(OC)c1)c(=O)n2CC(=O)Nc1ccccc1C | inactive: -21.4% |
| COc1ccc2c(c1)c1c(c(=O)n(CCc3ccccc3)c(=O)n1Cc1cccc(Cl)c1)n2C | inactive: -5.84% |
| COc1ccc(CC(=O)Nc2nc3c(s2)CC(C)CC3)cc1 (stereo unspecified) | inactive: -13.3% |
| Cc1ccc(NC(=O)C2CCCN(S(=O)(=O)c3ccc4[nH]c(=O)ccc4c3)C2)cc1Cl (stereo unspecified) | inactive: 3.39% |
| CCOc1ccccc1Nc1ncnc2c1cnn2-c1ccc(C)cc1 | inactive: -0.568% |
| COc1cc(NC(=O)c2ccc(C)c(Cl)c2)ccc1NC(=O)c1cc2ccccc2o1 | inactive: -10% |
| CCCn1cc(S(=O)(=O)c2ccc(C)cc2)c(=O)c2cc(F)c(N3CCCC3)cc21 | inactive: -27% |
| CC1CN(C(=O)N2CCC(C(=O)NCCCc3ccccc3)CC2)c2cc(Cl)ccc2O1 (stereo unspecified) | inactive: -7.66% |
| O=C(NCc1cccc(Cl)c1)c1c2c(nc3ccccc13)C(=O)N(C1CCCCC1)C2 | inactive: -15.9% |
| CC(=O)Nc1cccc(NC(=O)c2cc3c(=O)n4cccc(C)c4nc3n2C)c1 | inactive: 4.63% |
| COc1nc(C)nc(Cl)c1NC1=NCCN1 | inactive: -16.1% |
| CCCCOc1ccc(CNC(=O)c2cccc(NC(=O)N3CCSc4ncccc43)c2)cc1 | inactive: -11.5% |
| Cc1c(C(=O)NCc2ccc(Cl)cc2)oc2ccc3c(c12)C(=O)CC(C)(C)O3 | inactive: -10.3% |
| Cc1ccc(CNC(=O)CSc2ncc3c(n2)-c2cc(Cl)ccc2N(C)S3(=O)=O)cc1 | inactive: -14.3% |
| COc1cc(NC(=O)Cn2c(=O)n(CC3CCC(C(=O)NCCc4ccccc4)CC3)c(=O)c3ccccc32)cc(OC)c1 (stereo unspecified) | inactive: 8.28% |
| CO/N=C(/C(=O)N[C@@H]1C(=O)N2C(C(=O)OCOC(=O)C(C)(C)C)=C(C)CS[C@H]12)c1csc(N)n1 | inactive: -13.5% |
| COc1cccc(Cn2cc(C(=O)c3ccccc3)c(=O)c3cc4c(cc32)OCO4)c1 | inactive: -16.1% |

| Compound | activation |
| --- | --- |
| OCCCc1ccccc1 | inactive: -16.1% |
| COc1ccc(-n2ncc3c(NCCCOC(C)C)ncnc32)cc1 | inactive: -10.2% |
| O=C(CCc1nc(CN2CCN(S(=O)(=O)c3ccc(Br)cc3)CC2)no1)N1CCCCC1 | inactive: 5.73% |
| CCOc1ccccc1C1CC(=O)Nc2c1c(=O)n(C)c1ncnn21 (stereo unspecified) | inactive: -17.7% |
| CCCCNC(=O)C1CCCN(S(=O)(=O)CCC)C1 (stereo unspecified) | inactive: -16.3% |
| CCCCN(CC)CCCNC(=O)c1c(C)oc2ncnc(N3CCOCC3)c12 | inactive: -0.449% |
| COc1ccc(-n2c(C)nc3c(cnn3-c3ccc(F)cc3)c2=O)cc1 | inactive: -13.9% |
| CCc1nn2c(=O)cc(COC(=O)c3cccc(NC(=O)CCc4ccccc4)c3)nc2s1 | inactive: -17.9% |
| CCc1ccc(C(=O)c2cn(CC(=O)Nc3ccc4c(c3)OCCO4)c3ccc(F)cc3c2=O)cc1 | inactive: 1.56% |
| Cc1ccc(NCc2cccn2-c2nnc(N3CCC(C(=O)NCCc4ccc(Cl)cc4)CC3)s2)cc1 | inactive: -6.39% |
| CCc1nn(CC(=O)NCCc2ccc(OC)cc2OC)c(=O)c2cc3occc3n12 | inactive: -2.88% |
| COc1cc2c(=O)n(CCC(=O)NCC3CCCO3)c(=O)n(CC(=O)Nc3ccccc3C)c2cc1OC (stereo unspecified) | inactive: -4.62% |
| CCCCc1ccc(-n2nc3cc(C)c(NC(=O)c4ccc(C#N)cc4F)cc3n2)cc1 | inactive: -11.7% |
| COc1ccccc1CNC(=O)C1CCN(c2nc3ccc(Cl)cc3[nH]2)CC1 | inactive: 4.68% |
| CCn1cc(/C=C(\NC(=O)c2ccc(OC)cc2)C(=O)NCCCn2ccnc2)c2ccccc21 | inactive: -23.7% |
| COc1cc2nc(N3CCN(C(=O)c4ccco4)CC3)nc(N)c2cc1OC | inactive: -6.85% [at 23.8 µM] |
| NCCS(=O)(=O)O | inactive: -34.8% |
| COc1ccccc1NC(=O)Cn1c(SCC(=O)Nc2ccc(F)cc2)nc2ccccc21 | inactive: -12% |
| Cc1nc2ccn(Cc3ccccc3)c(=O)c2cc1C(=O)N1CCN(c2ccc(F)cc2)CC1 | inactive: 6.53% |
| CC(Sc1nnc2ccc3ccccc3n12)C(=O)Nc1ccc(Cl)cc1 (stereo unspecified) | inactive: -9.39% |
| CCCCS(=O)(=O)N[C@@H](Cc1ccc(OCCCCC2CCNCC2)cc1)C(=O)O | inactive: -9.61% |
| CCOC(=O)c1cnc2cc(-c3ccc(OCC)cc3)nn2c1-c1ccccc1 | inactive: -13.1% |
| COCCc1nn2c(=O)cc(COC(=O)C(c3ccccc3)c3ccccc3)nc2s1 | inactive: -18.6% |
| Cc1cc(NC(=O)n2ncc3c(C)cccc32)ccc1Br | inactive: -4% |
